# From PubChem BioAssay AID1745845 (National Center for Advancing Translational Sciences (NCATS), 2022)
# Screen size: about 360,000 compounds; about 2,600 (0.72%) were called active. This list was built around the results that the source calls inconclusive (neither active nor inactive); the mix of calls is not that of the screen. Calls come from the whole dose curve; as a rule, active = well fitted inhibition curve with a large enough effect; inconclusive = small, poorly fitted or top-dose-only effect; inactive = no such curve, though single readings can be large or run the other way. A potency beside an inconclusive call is a rough fit, not a confirmed value.
# Assay: Primary qHTS for Inhibitors of ATXN expression; note: nearly all actives have a fitted effect of over 55% in size
# Conditions: HEK-293 ATXN2-luciferase reporter, luminescence, 24 h; activity change, negative = inhibition: at 57 µM (top of the series)
# Procedure, shortened: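 qHTS (up to 57 uM final) was run with 24 h compound exposure of reporter cells at 37 °C. Each well was multiplexed: SteadyGlo luminescence measured ATXN2-luciferase expression after a fluorogenic Gly-Phe-AFC viability readout (25 uM final).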
# % is set by controls: 0 for no effect and ±100 for the full control effect; potency is the fitted concentration of half-maximal effect; tags give direction and shape of the fitted curve.
Structure (SMILES),Potency,"activity change, negative = inhibition"
COc1cc(-c2nc(-c3ccc4c(c3)-c3ccccc3S4(=O)=O)c(-c3ccccc3)[nH]2)cc(OC)c1OC,inactive,–
C=CC1CN(C(=O)OCC(Cl)(Cl)Cl)C2CC3c4ccc(OC)cc4NC3C3CC1C2CO3 (stereo not given),"inconclusive: 39.8 µM [inhibitor, single point]",–
CCC1Nc2ncnc(N3CCCCC3)c2N(Cc2ccc(Cl)cc2)C1=O (stereo not given),"inconclusive: 39.8 µM [inhibitor, single point]",–
Cc1ccc(S(=O)(=O)N2CCCCC2)cc1NC(=O)Cn1ncc(Cl)c(Cl)c1=O,"inconclusive: 39.8 µM [inhibitor, single point]",–
N#Cc1nc(COc2ccc(-c3ccccc3)cc2)oc1NCc1cccnc1,"inconclusive: 31.6 µM [inhibitor, partial curve, poor fit]",–
Cc1ccc(OCC(=O)NC(=S)Nc2ccccn2)c(Br)c1,"inconclusive: 25.1 µM [inhibitor, single point]",–
C[C@@H]1CCCCO[C@@H](CN(C)Cc2ccc(Cl)c(Cl)c2)[C@@H](C)CN([C@H](C)CO)C(=O)c2cc(NC(=O)CCC(F)(F)F)ccc2O1,"inconclusive: 31.6 µM [inhibitor, single point]",–
O=C(NC(NNc1ccc([N+](=O)[O-])cc1)(C(F)(F)F)C(F)(F)F)c1ccc(Cl)cc1,"inconclusive: 39.8 µM [inhibitor, single point]",–
O=S(=O)(c1cccs1)N1CN(Cc2ccc(Cl)cc2)c2nc3ccccc3nc21,inactive,–
COc1ccc(C)cc1NC(=O)C1CCN(S(=O)(=O)c2cccc3nonc23)CC1,"inconclusive: 25.1 µM [inhibitor, partial curve, poor fit]",–
COc1ccc(N2CC(NC(=O)NCCC(C)C)CC2=O)cc1 (stereo not given),inactive,–
NC(=O)C1CCN(C(=O)c2cc(Cl)c3c(c2)OCCO3)CC1,inactive,–
O=C(/C=C1\NC2(CCCC2)Cc2ccccc21)N1CCOCC1,inactive,–
CCc1nc2c(OCCC3CCCCC3)cccn2c1N(C)C(=O)C(C)C,"inconclusive: 39.8 µM [inhibitor, single point]",–
Cc1ccccc1OCCNc1cc(N2CC(C)NC(C)C2)ccc1[N+](=O)[O-] (stereo not given),"inconclusive: 26.7 µM [inhibitor, single point]",–
O=C(NCCc1csc(-c2ccc(F)cc2)n1)C(=O)Nc1ccc(Cl)cc1,inactive,–
COc1ccc(-c2cc(C(F)(F)F)nc(SCC(=O)Nc3ccc(C(C)=O)cc3)n2)cc1,"inconclusive: 39.8 µM [inhibitor, single point]",–
CCN(C[C@H]1N[C@@](CC)(C(=O)OC)[C@H]2C(=O)N(Cc3ccccc3)C(=O)[C@@H]12)C(=O)c1ccc(C(C)(C)C)cc1,"inconclusive: 25.1 µM [inhibitor, single point]",–
COc1cc(C(=O)N(C)Cc2cccc(OC)c2OC)ccc1OCC(=O)Nc1cccc(C(F)(F)F)c1,"inconclusive: 28.2 µM [inhibitor, partial curve]",–
Cn1cccc1Cc1nnc(SCC(=O)NCc2ccccc2)n1-c1ccc(F)cc1,inactive,–
COc1ccc(/C=C2/CCC(CN3CCOCC3)C2=O)cc1 (stereo not given),active: 6.7 µM,–
CCC/C=C1/CCCOC(C(=O)NCc2ccc(C)o2)(C(F)(F)F)C1 (stereo not given),"inconclusive: 20 µM [inhibitor, single point]",–

Structure (SMILES),Potency,"activity change, negative = inhibition"
COc1ccc2ccccc2c1CN1CCN(C)CC1,inactive,–
COc1ccc(N2C3=C(CC4=C2CC(C)(C)CC4=O)C(=O)CC(C)(C)C3)cc1,active: 15.8 µM,–
CC(c1ccccc1)N(CCC(c1ccccc1)C1CCOC(C)(C)C1)C(=O)c1ccco1 (stereo not given),inactive,–
CC[n+]1c(/C=C2/C=C(C)CC(C)(C)C2)sc2ccc(OC)cc21,"inconclusive: 31.6 µM [inhibitor, single point]",–
Cc1ccc(-c2c(C)n3c4c(=O)n(C)c(=O)n(C)c4nc3n2CCCO)cc1,active: 25.1 µM,–
COC(=O)c1ccc(C2C(C(=O)c3cc4ccccc4o3)=C(O)C(=O)N2CCN2CCOCC2)cc1 (stereo not given),inactive,–
Nc1ccc(C(=O)OCC(O)CO)cc1 (stereo not given),inactive,–
Cc1ccc(OCCCC(=O)NCc2ccco2)cc1,inactive,–
C[C@H]1CN([C@@H](C)CO)S(=O)(=O)c2ccc(Br)cc2O[C@H]1CN(C)Cc1ccc(F)cc1,"inconclusive: 39.8 µM [inhibitor, partial curve, poor fit]",–
CCOC(=O)CN1C(=O)C(CC)Oc2ccccc21 (stereo not given),inactive,–
O=C(COc1ccccc1Cl)Nc1ccc(N2CCN(C(=O)c3ccccc3)CC2)cc1,active: 17.8 µM,–
COc1ccc(/C=C/C(=O)OCC(=O)Nc2cccc(S(=O)(=O)NC3=NCCCCC3)c2)cc1,inactive,–
O=C(N/N=C/c1c(O)ccc2ccccc12)c1cccc(C(F)(F)F)c1,active: 2.99 µM,–
CCOc1ccc(NC(=O)c2ccc3nc(Cc4ccccc4)oc3c2)cc1,"inconclusive: 3.55 µM [inhibitor, full curve, poor fit]",–
O=C1C(=Cc2cn(-c3ccccc3)nc2-c2ccc(OCc3ccc(Cl)cc3)cc2)SC(=S)N1CCS(=O)(=O)O,inactive,–
COc1ccc(CN(C(=O)c2ccc(-c3ccccc3)[nH]2)C(C(=O)NCC2CCCO2)c2ccc(C)o2)cc1 (stereo not given),"inconclusive: 35.5 µM [inhibitor, single point]",–
CC(C)C[C@H]1CN([C@@H](Cc2ccccc2)CN2CCC[C@@H]2CN2C(=O)C(=O)NC[C@@H]2Cc2ccccc2)C(=O)C(=O)N1CC1CCCCC1,"inconclusive: 39.8 µM [inhibitor, single point]",–
O=C(Cc1ccc([N+](=O)[O-])cc1)Nc1cccc(C(=O)N2CCCC2)c1,"inconclusive: 28.2 µM [inhibitor, partial curve, poor fit]",–
COc1ccccc1C(=O)Nc1ccc2c(c1)nc1n2CCN(C2CCCCC2)C1,"inconclusive: 3.16 µM [inhibitor, partial curve, poor fit]",–
COc1ccc(Nc2nccc3c2ncn3C)cc1,"inconclusive: 20 µM [inhibitor, partial curve, poor fit]",–
CCn1c(CNc2ccc(OC)cc2)nnc1SCC(=O)N1CCCc2ccccc21,"inconclusive: 25.1 µM [inhibitor, single point]",–
Cc1ccccc1OCC(=O)Nc1ccc(Cc2ccncc2)cc1,"inconclusive: 20 µM [inhibitor, single point]",–

Structure (SMILES),Potency,"activity change, negative = inhibition"
CCCCCc1cc(=O)oc2c(C(CCN(CC)CC)c3cc(OC)c(OC)c(OC)c3)c(OC)cc(OC)c12 (stereo not given),"inconclusive: 25.1 µM [inhibitor, single point]",–
CCOc1ccc(N2CC(C(=O)Nc3cccc(S(=O)(=O)N4CCCCC4)c3)CC2=O)cc1 (stereo not given),–,inconclusive: -42.8% [inhibitor]
Cn1c(C(=O)N2CCN(C(=O)c3ccco3)CC2)cc2c(=O)n3ccccc3nc21,inactive,–
COC1=C(C)C(O)=C(C(=O)/C=C/c2ccccc2)C(=O)C1(C)C,"inconclusive: 31.6 µM [inhibitor, single point]",–
CCOc1ccc(C(=O)Nc2cc(C)ccn2)cc1,"inconclusive: 23.8 µM [inhibitor, single point]",–
CCCCCc1c(-c2ccc(OC)cc2)ncn1CCc1ccccc1OC,"inconclusive: 28.2 µM [inhibitor, single point]",–
COc1cccc(NC(=O)COC(=O)/C=C/c2c(C)nn(-c3ccccc3)c2C)c1,"inconclusive: 1.34 µM [inhibitor, partial curve]",–
Cn1[nH]c2c(c1=O)[C@H](c1ccc(F)cc1)O[C@H](CCc1ccccc1)C2,inactive,–
C=C(C)C(=O)O[C@H]1C/C(C)=C\C(=O)/C=C(\C)[C@H](O)[C@@H]2OC(=O)C(=C)[C@@H]21,"inconclusive: 6.31 µM [inhibitor, single point]",–
COC(=O)c1c(NC(=O)COc2ccc(OC)cc2)sc2c1CCC(C)C2 (stereo not given),"inconclusive: 39.8 µM [inhibitor, single point]",–
COCCCNC(=S)N1CCN(c2nc(-c3ccc(F)cc3)cs2)CC1,"inconclusive: 7.94 µM [inhibitor, partial curve]",–
CC(=O)c1ccc(OCCCC(=O)NNC(=O)c2ccccn2)cc1,"inconclusive: 25.1 µM [inhibitor, single point]",–
COc1ccc(-n2nc(C(=O)NCc3ccc(F)cc3)c3c4ccccc4n(C)c3c2=O)cc1,inactive,–
CS(=O)(=O)c1ccc(C(=O)OCc2nnc(-c3ccccc3)o2)cc1[N+](=O)[O-],"inconclusive: 37.7 µM [inhibitor, single point]",–
CCN(CC)C(=O)c1sc2c(c1C)c(=O)n(CCc1ccccc1)c(=O)n2Cc1cccc(Cl)c1,"inconclusive: 22.4 µM [inhibitor, single point]",–
COc1ccc(Cc2nnc(NC(=O)Cc3cccs3)s2)cc1OC,"inconclusive: 12.6 µM [inhibitor, partial curve]",–
COc1ccccc1CNC(=O)Nc1nc(C(N)CCc2ccccc2)cs1 (stereo not given),"inconclusive: 31.6 µM [inhibitor, single point]",–
NC(Cc1ccc(C(F)(F)F)cc1)c1csc(Nc2cc(NCc3ccco3)ncn2)n1 (stereo not given),active: 14.1 µM,–
OC(COCc1cccs1)CN1CCN(c2cccc(Cl)c2)CC1 (stereo not given),inactive,–
CC(=O)n1cc([C@H]2C=C(C(=O)N3CCN(Cc4ccccc4)CC3)O[C@@H](OCc3ccc(CO)cc3)C2)c2ccccc21,"inconclusive: 39.8 µM [inhibitor, single point]",–
Fc1ccccc1C1c2cccn2CCN1C(=S)Nc1ccc(Br)cc1 (stereo not given),"inconclusive: 35.5 µM [inhibitor, single point]",–
